# Measured values taken from article PMC4336329 (PLoS ONE, 2015).
# Out of some 310,000 compounds screened, about 14,000 (4.5%) showed an effect of 50% or more. The effect is printed as a negative number. The list shows a part of the results.
# Target: human ether-à-go-go-related gene (hERG) potassium channel (human, UniProt Q12809)
# Assay: primary screen, population patch clamp on CHO cells stably expressing hERG
# 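Further: peak tail current of the secondary pulse compared with the same well before compound.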
# human ether-à-go-go-related gene (hERG) potassium channel, sequence (Q12809 whole entry, looked up): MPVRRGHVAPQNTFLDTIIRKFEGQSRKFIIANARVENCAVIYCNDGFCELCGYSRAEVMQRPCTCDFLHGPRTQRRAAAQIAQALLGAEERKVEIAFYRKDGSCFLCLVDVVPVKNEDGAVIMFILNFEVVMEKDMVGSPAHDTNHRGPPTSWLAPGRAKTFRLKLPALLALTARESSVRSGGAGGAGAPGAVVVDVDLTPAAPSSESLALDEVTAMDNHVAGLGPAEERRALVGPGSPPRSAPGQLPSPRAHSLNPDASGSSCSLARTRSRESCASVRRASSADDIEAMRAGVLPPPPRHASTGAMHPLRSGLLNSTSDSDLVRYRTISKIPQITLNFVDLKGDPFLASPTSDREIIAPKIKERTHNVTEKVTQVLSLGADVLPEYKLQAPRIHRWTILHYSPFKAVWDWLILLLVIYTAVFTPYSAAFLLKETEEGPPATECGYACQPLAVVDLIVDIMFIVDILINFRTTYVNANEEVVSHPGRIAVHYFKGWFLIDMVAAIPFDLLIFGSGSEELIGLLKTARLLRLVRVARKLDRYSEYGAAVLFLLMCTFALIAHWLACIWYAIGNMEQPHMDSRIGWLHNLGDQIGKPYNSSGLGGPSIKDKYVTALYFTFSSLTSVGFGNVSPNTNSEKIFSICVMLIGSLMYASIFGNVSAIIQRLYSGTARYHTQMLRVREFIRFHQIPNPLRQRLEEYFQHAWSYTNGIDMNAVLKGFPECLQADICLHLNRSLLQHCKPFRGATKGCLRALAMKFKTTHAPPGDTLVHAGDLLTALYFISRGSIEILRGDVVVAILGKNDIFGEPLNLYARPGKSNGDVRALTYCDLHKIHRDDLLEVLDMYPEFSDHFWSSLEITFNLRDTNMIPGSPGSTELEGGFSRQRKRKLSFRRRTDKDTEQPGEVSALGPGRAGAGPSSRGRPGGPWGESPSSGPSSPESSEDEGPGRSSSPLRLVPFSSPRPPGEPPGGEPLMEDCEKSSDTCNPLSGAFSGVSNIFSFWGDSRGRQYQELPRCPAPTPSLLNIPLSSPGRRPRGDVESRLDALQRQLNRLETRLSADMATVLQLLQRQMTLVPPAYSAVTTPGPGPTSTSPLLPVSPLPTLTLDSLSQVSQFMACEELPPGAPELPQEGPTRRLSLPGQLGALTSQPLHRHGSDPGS
row,SMILES,"hERG current change (%, negative = inhibition) at 10uM"
1,COc1ccc(-c2nc3c4ccccc4ccn3c2C=O)cc1,19.6%
2,Cc1cccn2c(=O)c3cc(C(=O)N4CC(C)CC(C)C4)sc3nc12 (centres unmarked),7.15%
3,O=C(CN1C(=O)C(=O)N(Cc2ccccc2)C1=O)Nc1ccc(OC(F)F)cc1,-0.804%
4,Cc1cc(=O)[nH]c(NCc2ccccc2)n1,5.65%
5,CN1C(=O)c2ccc(NC(=O)C3CC3)cc2C1=O,6.21%
6,Nc1nonc1NC(=O)NN=C1CCCCC1,2.13%
7,Cc1[nH]c2ccccc2c1/C=N/NC(=O)CCC(=O)NCc1ccccc1,10.9%
8,COc1ccc2[nH]c3c(N4CC(C)OC(C)C4)ncnc3c2c1 (centres unmarked),2.56%
9,COc1cc2cc(C(=O)N/N=C/c3ccc(F)cc3)[nH]c2cc1OC,-3.74%
10,O=C(NCc1cc(C(F)(F)F)cc(C(F)(F)F)c1)C1CC(c2ccc(C(F)(F)F)cc2)=NO1 (centres unmarked),23.2%
11,Cn1cc(SCC(N)=O)c2ccccc21,1.23%
12,COc1cccc(C(=O)CN2CCN(S(=O)(=O)c3ccc(Br)cc3)CC2)c1,-6.53%
13,O=C(Nc1ccccc1F)c1ccn[nH]1,21.6%
14,Cc1ccc(OC(=O)c2ccc(Br)o2)cc1,2.43%
15,O=C(O)c1ccc(N2C(=O)c3ccc(C(=O)c4cccc([N+](=O)[O-])c4)cc3C2=O)cc1,3.19%
16,CCOC(=O)c1cnc2c(OC)cccc2c1N1CCN(c2ccccn2)CC1,-44.5%
17,Cc1ccc(-n2c(-c3ccncc3)n[nH]c2=S)cc1,19.1%
18,COc1cc2c(cc1OC)C(C)N(C(=O)c1cc3c(=O)oc4ccc(C)cc4c3s1)CC2 (centres unmarked),13.4%
19,COC(=O)Nc1nn(-c2ccc(Cl)cc2)c(=O)c(C#N)c1C,-25.3%
20,COc1cccc(/C=N/NC(=S)Nc2cccc(S(=O)(=O)N(C)C)c2)c1,17.7%
21,O=C1CC(N2CCN(Cc3ccccc3)CC2)C(=O)N1 (centres unmarked),15.5%
22,Cc1ccc(S(=O)(=O)/N=C(/Nc2nc(C)cc(C)n2)N2CCOCC2)cc1,15.1%
23,O=C(CSCc1ccc(F)cc1)Nc1ccccc1,0.958%

row,SMILES,"hERG current change (%, negative = inhibition) at 10uM"
1,CC(=O)c1cn(CC(=O)Nc2ccccc2)c2ccccc12,3.11%
2,O=C(Cc1c(O)c2ccccc2[nH]c1=O)OC1CCCCC1,15.7%
3,O=c1c2ccccc2nc(/C=C/c2ccc(O)cc2)n1-c1ccc(O)cc1,1.37%
4,O=C1N(c2ccc(Cl)c(Cl)c2)CN(Cc2ccccc2)CN1n1cnnc1,-25.9%
5,O=C(NCC1CCN(C(=O)c2c(F)c(F)c(F)c(F)c2F)CC1)c1c(F)c(F)c(F)c(F)c1F,-30%
6,CCN1CCCC1CNC(=O)c1cn(CC)c2ccc(S(=O)(=O)N3CCCCCC3)cc2c1=O (centres unmarked),-66.5%
7,CCNC(=O)NC(=O)C(C)OC(=O)c1oc2ccccc2c1CSC1CCCCC1 (centres unmarked),1.74%
8,O=c1[nH]c2ccccc2n2c(-c3ccccc3)nnc12,5.35%
9,CCOc1ccc(CNC(=O)C2CCN(S(=O)(=O)c3ccc4c(c3)CCCC(=O)N4)CC2)cc1,4.94%
10,Cc1cccc(NCc2ccccc2OCc2ccccc2F)c1,12.6%
11,COc1cc(Br)ccc1C1CC(=O)C(C)C(c2ccc(Br)cc2OC)N1 (centres unmarked),10.5%
12,COCCN(C)C(=O)CCc1nnc(Cc2ccc(-c3ccccc3)cc2)o1,-0.986%
13,CCCc1nc(NCC2CCCO2)c2nnn(Cc3ccccc3)c2n1 (centres unmarked),5.29%
14,COc1cc(OC)cc(-c2cc3nc(C)c(CCC(=O)O)c(C)n3n2)c1,26%
15,CN1C(=O)c2ccc(NC(=O)CSc3ccccc3)cc2C1=O,5.57%
16,O=C(COc1ccccc1)N1N=C(c2cccnc2)CC1(O)C(F)(F)F (centres unmarked),-10.8%
17,COc1ccc(C(CC(=O)Nc2ccccn2)N2Cc3ccccc3C2=O)cc1 (centres unmarked),-30.2%
18,Cc1cccc(NS(=O)(=O)c2nnc(NC(=O)c3ccc(Cl)cc3)s2)c1,3.53%
19,CCOC(=O)c1csc(NC(C)=O)n1,16.1%
20,CCOC(=O)C1CCN(C(=O)COc2ccc(S(=O)(=O)N3CCOCC3)cc2C)CC1,-1.46%
21,O=C(NCC1CCCN1S(=O)(=O)c1cccs1)c1ccc(F)cc1 (centres unmarked),-13.9%
22,COc1ccc(C2C3=C(N=C4SCC(=O)N42)c2ccccc2CC3)cc1 (centres unmarked),-8.9%
23,Cc1cccc(NC(=S)N2CCN(Cc3ccccc3)CC2)c1C,-13.2%

row,SMILES,"hERG current change (%, negative = inhibition) at 10uM"
1,CCN(CC(=O)N1CCOCC1)S(=O)(=O)c1ccc(Cl)cc1,1.62%
2,O=[N+]([O-])c1ccc(NCCc2ccccc2)c(Br)c1,17.6%
3,CCOc1cc(C(=O)N(C)Cc2cc3cc(OC)ccc3[nH]c2=O)cc(OCC)c1OCC,-7.8%
4,CSc1cccc(NC(=O)CCNS(=O)(=O)c2ccc3[nH]c(=O)oc3c2)c1,12.5%
5,NCc1c(O)ccc2ccccc12,13.4%
6,CCC(C)n1c(O)c(C=NCCc2ccccc2)c(=O)[nH]c1=S (centres unmarked),14.5%
7,CCOC(=O)C1CCCN(C(=O)c2ccc(C)c(NC(=O)C3=C(C)OCCS3)c2)C1 (centres unmarked),14.5%
8,COc1cccc(NC(=S)NC(=O)/C=C/c2ccc(F)cc2)c1,19%
9,CCO[C@@H]1c2c(ccc3ccc(=O)oc23)OC(C)(C)[C@@H]1O,22.3%
10,CCCCNC(=O)C1CCN(Cc2ccccn2)CC1,12%
11,O=C(CSc1nccc(=O)[nH]1)NC1CCCc2ccccc21 (centres unmarked),4.2%
12,CCOc1ccc(N=Cc2c(O)n(-c3cccc(C)n3)c(=O)c3ccccc23)cc1,-34.1%
13,Cn1c(Oc2ccc(F)cc2F)c(C=O)c2ccccc21,-17.7%
14,Cc1nccn1S(=O)(=O)c1cc([N+](=O)[O-])ccc1Cl,0.394%
15,COc1ccc(-n2c(-c3ccc(Br)cc3)c[n+]3c2CCCCC3)cc1.[Br-],-80.3%
16,O=C(CNC(=O)c1cccs1)N=Nc1c(O)[nH]c2ccc(Br)cc12,14.8%
17,Cc1oc(-c2ccccc2Cl)nc1CSc1nc2c(c(=O)[nH]1)CCCC2,8.98%
18,Cc1cc(C)c(S(=O)(=O)N2CCCCC2CCNC(=O)C(=O)NCCN2CCOCC2)c(C)c1 (centres unmarked),-23.9%
19,CCOc1ccc(Cn2nnc(-c3ccc(S(C)(=O)=O)cc3)n2)cc1OCC,17.8%
20,CCOC(=O)C1(Cc2cccc(OC)c2)CCN(Cc2ccc(C)s2)CC1,-67.1%
21,CC(C)c1ccc(NC(=O)N2CCc3ccccc3C2)cc1,-15.1%
22,CN(CCCC1CCCC1)C(=O)c1cc(COc2ccc(F)c(F)c2)on1,11.5%
23,Fc1ccc(N2CCN(c3nnnn3-c3ccccc3)CC2)cc1,-17%

row,SMILES,"hERG current change (%, negative = inhibition) at 10uM"
1,COc1ccc2[nH]c(=O)c(CNc3ccc(C)c(C)c3)cc2c1,3.24%
2,CC(C)(C)NC(=O)C(=O)NNC(=O)COc1ccccc1,-14.4%
3,O=C(NCCCn1ccnc1)/C(=C\c1cccnc1)NC(=O)c1ccccc1F,-17.7%
4,Cc1ccc(C2CC(=O)Nc3cc4c(cc32)OCO4)o1 (centres unmarked),-6.64%
5,O=C(Nc1cccc(S(=O)(=O)C(F)F)c1)c1ccc(S(=O)(=O)N2CCCC2)cc1,-2.91%
6,O=C1c2ccccc2C(=O)N1CCCOc1ccccc1,8.33%
7,Cn1c(=O)c2c(nc(Cl)n2CC(=O)N2CCCCC2)n(C)c1=O,42%
8,COC(=O)c1cccc(NC(=O)CSc2nnc(COc3ccccc3)n2C)c1,-7.84%
9,O=C(CCCCCNC(=O)N1CCn2c1nc1ccccc12)NCc1ccccc1Cl,-16.6%
10,COc1ccc(N2C(=O)C3[C@@H](C2=O)C2(Cl)C(Cl)=C(Cl)C3(Cl)C2(OC)OC)cc1 (some centres unmarked),-9.16%
11,Cc1ccc(-c2c[n+](Cc3ccc(Cl)cc3)c3n2CCC3)cc1.[Cl-],-41.6%
12,CN(C(=O)CSc1nnc(-c2ccco2)o1)C1CCCCC1,-7.54%
13,CC(C)NCC(O)COc1ccc(COCCOC(C)C)cc1.O=C(O)/C=C/C(=O)O (centres unmarked),-3.41%
14,CC(C)c1ccc(NC2CCCN(C(=O)CCn3cnnn3)C2)cc1 (centres unmarked),3.86%
15,CCOC(=O)N1CCC(NC(=O)CS(=O)Cc2nc(-c3ccc(Cl)cc3)oc2C)CC1 (centres unmarked),-47.4%
16,CCn1c(SCC(=O)OC(C)C)nnc1-c1ccccc1OC,13.9%
17,CCCNC(=O)c1ccc(S(N)(=O)=O)cc1,10.1%
18,COC(=O)[C@]1(C)N[C@H](c2ccc(SC3CCCCC3)cc2)[C@@H]2C(=O)N(C)C(=O)[C@@H]21.O=C(O)C(F)(F)F,-2.83%
19,CCCC[C@@H]1CNCCN1CCc1cccc2ccccc12,-22.8%
20,COc1ccc(OCC(=O)OCC(=O)NCC2CCCCC2)cc1,6.21%
